Source: patent publication US8633183B2 (priority 2010, dated 2014)

Experiments:
[1] = system: U87MG human glioblastoma cell line; assay: cells; conditions: U-87 MG, read-out: EC50 U87MG
[2] = system: BT474; assay: cells; conditions: Homo sapiens, BT-474, read-out: EC50 BT474

| SMILES | EC50 [1] [µM] | EC50 [2] [µM] |
| --- | --- | --- |
| CCc1ncnc(-c2cc(F)c(C(=O)N3CCN(C)CC3)c(F)c2)c1C#Cc1ccc(N)nc1 [Example E-1] | 0.0469 | 0.0182 |
| CCc1ncnc(-c2cc(F)c(C(=O)N3CCN(CCOC)CC3)c(F)c2)c1C#Cc1ccc(N)nc1 [Example E-5] | 0.0494 | 0.0275 |
| CCc1ncnc(-c2ccc(C(=O)N3CCC(N4CCN(C)CC4)CC3)c(Cl)c2)c1C#Cc1ccc(N)nc1 [Example E-70] | 0.0749 | 0.0286 |
| CCc1ncnc(-c2cc(F)c(C(=O)N3CCN(CC4CC4)CC3)c(F)c2)c1C#Cc1ccc(N)nc1 [Example E-7] | 0.131 | 0.0164 |
| CCc1ncnc(-c2cc(F)c(C(=O)N3CCC(N4CCOCC4)CC3)c(F)c2)c1C#Cc1ccc(N)nc1 [Example E-9] | 0.013 | 0.00976 |
| CCc1ncnc(-c2cc(F)c(C(=O)N3CCN(CC)CC3)c(F)c2)c1C#Cc1ccc(N)nc1 [Example E-3] | 0.0471 | 0.0147 |
| CCc1ncnc(-c2ccc(C(=O)N3CCN4CCC[C@H]4C3)c(F)c2)c1C#Cc1ccc(N)nc1 [Example E-142] | 0.0188 | 0.0161 |
| CCc1ncnc(-c2ccc(C(=O)N3CCC(N4CCN(C)CC4)CC3)c(OC)c2)c1C#Cc1ccc(N)nc1 [Example E-45] | 0.448 | – |
| CCOC(=O)N1CCN(C(=O)c2ccc(-c3ncnc(CC)c3C#Cc3ccc(N)nc3)cc2Cl)CC1 [Example E-82] | 0.108 | – |
| CCc1ncnc(-c2ccc(C(=O)N(C)O)c(C)c2)c1C#Cc1ccc(N)nc1 [Example E-128] | 0.0551 | – |
| CCc1ncnc(-c2ccc(C(=O)N3CCC(C4CCN(C)CC4)CC3)c(Cl)c2)c1C#Cc1ccc(N)nc1 [Example E-21] | 0.0776 | – |
| CCc1ncnc(-c2ccc(C(=O)N3CCC(C)(O)CC3)c(Cl)c2)c1C#Cc1ccc(N)nc1 [Example E-25] | 0.0573 | – |
| CCc1ncnc(-c2ccc(C(=O)N(C)OC)c(C)c2)c1C#Cc1ccc(N)nc1 [Example E-104] | 0.104 | – |
| CCc1ncnc(-c2cc(F)c(C(=O)NCCN3CCOCC3)c(F)c2)c1C#Cc1ccc(N)nc1 [Example E-13] | 0.0853 | – |
| CCc1ncnc(-c2ccc(C(=O)N3CCN(CC4CC4)CC3)c(C)c2)c1C#Cc1ccc(N)nc1 [Example E-116] | 0.0186 | – |
| CCc1ncnc(-c2ccc(C(=O)N3CCC(N4CCOCC4)CC3)c(Cl)c2)c1C#Cc1ccc(N)nc1 [Example E-71] | 0.0354 | – |
| CCc1ncnc(-c2ccc(C(=O)N3CCC(N4CCN(C)CC4)CC3)c(C)c2)c1C#Cc1ccc(N)nc1 [Example E-89] | 0.222 | – |
| CCc1ncnc(-c2cc(F)c(C(=O)N(C)C)c(F)c2)c1C#Cc1ccc(N)nc1 [Example E-10] | 0.0487 | – |
| CCc1ncnc(-c2ccc(C(=O)N3CC(O)CO3)c(OC)c2)c1C#Cc1ccc(N)nc1 (stereo not shown) [Example E-49] | 1.06 | – |
| CCc1ncnc(-c2ccc(C(=O)N3CC[S+]([O-])CC3)c(Cl)c2)c1C#Cc1ccc(N)nc1 [Example E-23] | 0.043 | – |
| CCc1ncnc(-c2ccc(C(=O)N3CCN(Cc4ccccc4)CC3)c(Cl)c2)c1C#Cc1ccc(N)nc1 [Example E-42] | 0.248 | – |

| SMILES | EC50 [1] [µM] | EC50 [2] [µM] |
| --- | --- | --- |
| CCc1ncnc(-c2cc(F)c(C(=O)NC)c(F)c2)c1C#Cc1ccc(N)nc1 [Example E-12] | 0.0899 | – |
| CCc1ncnc(-c2ccc(C(=O)N3CCN(C4CCOCC4)CC3)c(C)c2)c1C#Cc1ccc(N)nc1 [Example E-88] | 0.0476 | – |
| CCc1ncnc(-c2ccc(C(=O)N3CCOCC3)c(Cl)c2)c1C#Cc1ccc(N)nc1 [Example E-72] | 0.102 | – |
| CCc1ncnc(-c2ccc(C(=O)N3CCCC(O)C3)c(OC)c2)c1C#Cc1ccc(N)nc1 (stereo not shown) [Example E-46] | 0.186 | – |
| CCc1ncnc(-c2ccc(C(=O)N3CCC4(CC3)OCCCO4)c(Cl)c2)c1C#Cc1ccc(N)nc1 [Example E-19] | 0.0303 | 0.0303 |
| CCc1ncnc(-c2cc(F)c(C(=O)N3CCNCC3)c(F)c2)c1C#Cc1ccc(N)nc1 [Example E-14] | 0.0587 | 0.0166 |
| CCc1ncnc(-c2ccc(C(=O)N3CCN4CCC[C@@H]4C3)c(F)c2)c1C#Cc1ccc(N)nc1 [Example E-140] | 0.0392 | 0.0137 |
| CCc1ncnc(-c2ccc(C(=O)N3CCC(OC)CC3)c(C)c2)c1C#Cc1ccc(N)nc1 [Example E-118] | 0.0309 | – |
| CCc1ncnc(-c2ccc(C(=O)N3CCCO3)c(OC)c2)c1C#Cc1ccc(N)nc1 [Example E-50] | 0.149 | – |
| CCCCN1CCN(C(=O)c2ccc(-c3ncnc(CC)c3C#Cc3ccc(N)nc3)cc2OC)CC1 [Example E-43] | 0.207 | – |
| CCc1ncnc(-c2cc(F)c(C(=O)N3CCN(C(C)C)CC3)c(F)c2)c1C#Cc1ccc(N)nc1 [Example E-2] | 0.0452 | – |
| CCc1ncnc(-c2ccc(C(=O)N3CCOCC3)c(OC)c2)c1C#Cc1ccc(N)nc1 [Example E-48] | 0.16 | – |
| CCc1ncnc(-c2ccc(C(=O)N3CCCN(C)CC3)c(Cl)c2)c1C#Cc1ccc(N)nc1 [Example E-36] | 0.255 | – |
| CCc1ncnc(-c2ccc(C(=O)N3CCCO3)c(Cl)c2)c1C#Cc1ccc(N)nc1 [Example E-74] | 0.102 | – |
| CCc1ncnc(-c2ccc(C(=O)NCCN3CCOCC3)c(Cl)c2)c1C#Cc1ccc(N)nc1 [Example E-84] | 0.0684 | – |
| CCc1ncnc(-c2ccc(C(=O)N3CCC(C(C)(C)O)CC3)c(C)c2)c1C#Cc1ccc(N)nc1 [Example E-87] | 0.147 | – |
| CCc1ncnc(-c2ccc(C(=O)N3CCN(c4ccccc4)CC3)c(C)c2)c1C#Cc1ccc(N)nc1 [Example E-135] | 0.0591 | – |
| CCc1ncnc(-c2ccc(C(=O)N3C[C@H]4C[C@@H]3CN4C)c(F)c2)c1C#Cc1ccc(N)nc1 [Example E-16] | 0.125 | – |
| CCCN1CCN(C(=O)c2c(F)cc(-c3ncnc(CC)c3C#Cc3ccc(N)nc3)cc2F)CC1 [Example E-4] | 0.0753 | 0.0273 |
| CCCCN1CCN(C(=O)c2ccc(-c3ncnc(CC)c3C#Cc3ccc(N)nc3)cc2C)CC1 [Example E-86] | 0.0902 | – |
